{
  "source": "PubChem BioAssay AID1346428",
  "about": "(National Center for Advancing Translational Sciences (NCATS), 2018)",
  "note": "Hit rate of the full screen: of about 48,000 compounds, about 1,200 (2.5%) were called active. Inconclusive results (about 2%) are left out.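 The calls were made as follows: active = activation of at least 60% and not above a set upper limit (about 1 call in 100 departs from these limits); inconclusive = activation of 40% to 60%, or above that upper limit; inactive = activation under 40%.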 This is one part of the list.",
  "data": [
    {"biological_target": "Probable G-protein coupled receptor 32 (Homo sapiens) (UniProt O75388)", "sequence (O75388 whole entry, looked up)": "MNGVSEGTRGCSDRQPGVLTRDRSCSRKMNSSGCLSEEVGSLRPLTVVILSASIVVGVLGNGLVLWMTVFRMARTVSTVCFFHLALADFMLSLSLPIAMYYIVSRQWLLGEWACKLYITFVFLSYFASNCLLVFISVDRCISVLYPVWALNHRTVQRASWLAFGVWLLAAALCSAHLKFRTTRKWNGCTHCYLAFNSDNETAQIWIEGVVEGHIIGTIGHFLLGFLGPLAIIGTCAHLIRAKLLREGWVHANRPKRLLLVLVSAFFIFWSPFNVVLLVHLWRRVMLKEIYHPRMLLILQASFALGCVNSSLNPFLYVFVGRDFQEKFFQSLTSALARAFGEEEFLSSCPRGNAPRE", "assay": "qHTS for Agonists of Human Resolvin D1 Receptor DRV1; also: 0% is about no effect", "details": "CHO-K1 GPR32 beta-arrestin PathHunter luminescence, 90 min; at 76.9 µM; stronger effect = higher value; zero percent set by DMSO-only wells", "procedure,_shortened": "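CHO-K1 cells stably expressing ProLink-tagged GPR32 and Enzyme Activator-tagged beta-arrestin were seeded at 2,500 cells/well overnight, exposed to compounds for 90 min at 37 °C, then read by beta-Gal complementation chemiluminescence after 1 h detection reagent.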", "values": [
      {"smiles": "COc1ccccc1/C=C/c1nc(C#N)c(N(C)C)o1", "activation": "inactive: 4.22%"},
      {"smiles": "Cc1c2cnn(CC(=O)Nc3cccc(C(F)(F)F)c3)c(=O)c2c(C)n1Cc1ccccc1Cl", "activation": "inactive: -3.51%"},
      {"smiles": "CCOC(=O)N1CCc2c(sc3c2c(=O)n(-c2ccc(CC)cc2)c(=O)n3CC(=O)c2ccc(F)cc2)C1", "activation": "inactive: -13.8%"},
      {"smiles": "Cc1c2cnn(CC(=O)NC(C)C)c(=O)c2c(C)n1Cc1ccccc1Cl", "activation": "inactive: -2.01%"},
      {"smiles": "CCC(Sc1nncn2c1cc1occc12)C(=O)Nc1ccc(C)c(Cl)c1", "note": "(stereo unspecified)", "activation": "inactive: -15.1%"},
      {"smiles": "CCN(C(=O)CSc1nc2ccccc2n1Cc1cc(C)ccc1C)c1ccccc1", "activation": "inactive: 0.779%"},
      {"smiles": "COc1cccc(N2CCN(C3C(=O)c4ccccc4N3C(C)=O)CC2)c1", "note": "(stereo unspecified)", "activation": "inactive: -37.6%"},
      {"smiles": "COc1cccc(C2C(C(=O)Nc3ccc(C)cc3C)=C(C)Nc3c(C(=O)Nc4cccc(C)c4)cnn32)c1OC", "note": "(stereo unspecified)", "activation": "inactive: -11.2%"},
      {"smiles": "CCOc1ccc(OCC)c(NC(=O)CN(C)S(=O)(=O)c2ccc3c(c2)CCCC(=O)N3)c1", "activation": "inactive: -19.7%"},
      {"smiles": "Cc1nnc(NS(=O)(=O)c2ccc(N)cc2)s1", "activation": "inactive: 10.6%"},
      {"smiles": "O=C(Cn1nc(-c2ccc(Cl)cc2)ccc1=O)NCc1ccccc1Cl", "activation": "inactive: -2.28%"},
      {"smiles": "Cc1cccc(OCC(=O)N(Cc2sccc2C)C2CCS(=O)(=O)C2)c1", "note": "(stereo unspecified)", "activation": "inactive: -7.72%"},
      {"smiles": "CCCNC(=O)C1CCC(Cn2c(=O)c3sccc3n(CC(=O)N3CCC(C)CC3)c2=O)CC1", "note": "(stereo unspecified)", "activation": "inactive: -2.91%"},
      {"smiles": "COc1ccc(N2CCN(C(=O)c3ccc(-c4nc(COc5ccccc5)c(C)o4)cc3)CC2)cc1", "activation": "inactive: -0.295%"},
      {"smiles": "COc1ccc(N2CCN(C(=O)c3nc(SC)ncc3Cl)CC2)cc1", "activation": "inactive: 0.787%"},
      {"smiles": "COc1ccc(C(C)C)cc1S(=O)(=O)NCCc1c(C)[nH]c2ccc(C)cc12", "activation": "inactive: -14.3%"},
      {"smiles": "CC(C)(C)OC(=O)N1CCC(c2c(C(=O)N3CCc4ccccc4C3)cnn2-c2ccc(F)cc2)CC1", "activation": "inactive: -8.96%"},
      {"smiles": "Cc1ccccc1OCCn1c(CCNC(=O)C(C)(C)C)nc2ccccc21", "activation": "inactive: -12.6%"},
      {"smiles": "CC1=C(c2ccc(C)c(C)c2)S(=O)(=O)N=C1N1CCC(C(=O)NCc2ccc(C)o2)CC1", "activation": "inactive: 4.04%"},
      {"smiles": "CCc1ccc(CNC(=O)c2ccc(-c3nc(CS(=O)(=O)c4ccccc4)c(C)o3)cc2)cc1", "activation": "active: 84.3%"},
      {"smiles": "Cc1coc2c(C)c3oc(=O)c(CCC(=O)NCCc4ccc(Cl)cc4)c(C)c3cc12", "activation": "inactive: -16.6%"},
      {"smiles": "CC(NC(=O)CCCn1c(=O)c2cccn2c2cccnc21)c1ccccc1", "note": "(stereo unspecified)", "activation": "inactive: -10.7%"},
      {"smiles": "CCOc1ccc(-c2nc(C#N)c(NCCCOC)o2)cc1", "activation": "inactive: -22.7%"},
      {"smiles": "O=C1C(=O)N(C2CCN(S(=O)(=O)c3ccc(F)cc3)CC2)CCN1Cc1ccccc1", "activation": "inactive: 15.8%"},
      {"smiles": "CCOC(=O)c1cccc(NC(=O)CN2C(=O)CC(C)(C)Sc3ccccc32)c1", "activation": "inactive: -10.5%"},
      {"smiles": "CCN(C(=O)c1oc2ccc(S(=O)(=O)N3CCCCCC3)cc2c1C)c1ccccc1", "activation": "inactive: -6.58%"},
      {"smiles": "Cc1ccc(-n2ncc(C(=O)NCCN3CCc4ccccc4C3)c2C2CCN(C(=O)OC(C)(C)C)CC2)cc1", "activation": "inactive: -37.3%"},
      {"smiles": "COc1ccc(CCNC(=O)CCCn2c(=O)c3ccccc3n(Cc3ccccc3C)c2=O)cc1OC", "activation": "inactive: -4.73%"},
      {"smiles": "Cc1cccc(C)c1OCc1nc2c3cnn(-c4cccc(F)c4)c3ncn2n1", "activation": "inactive: 11%"},
      {"smiles": "CCOC(=O)c1cc(S(=O)(=O)N2CCN(c3ccc(OC)cc3)CC2)[nH]n1", "activation": "inactive: -15.7%"},
      {"smiles": "Cc1ccc(C(=O)Nc2c(C(=O)NCc3ccc(Cl)cc3)sc3nc(C)cc(C)c23)cc1", "activation": "inactive: -18.9%"},
      {"smiles": "Cc1ccc(Nc2c(-c3ccc(N4CCOCC4)cc3)nc3ncccn23)cc1", "activation": "inactive: -18.7%"},
      {"smiles": "CCN1CCN(c2cc3c(cc2F)c(=O)c(C(=O)O)cn3C2CC2)CC1", "activation": "inactive: -4.45%"},
      {"smiles": "COc1cc(C2CC(=O)c3c([nH]c(C(=O)OC4CCCCC4)c3C)C2)cc(OC)c1OC", "note": "(stereo unspecified)", "activation": "inactive: 31.2%"},
      {"smiles": "Cc1ccc(CNC(=O)c2c3c(nc4ccccc24)C(=O)N(C2CCCCC2)C3)cc1", "activation": "inactive: -14.5%"},
      {"smiles": "CCCCn1c2ccc(F)cc2c2nnc(SCCN(CC)CC)nc21", "activation": "inactive: 7.93%"},
      {"smiles": "COc1cccc(NC(=O)CSc2nc3ccccc3nc2N2CCOCC2)c1", "activation": "inactive: -34.6%"},
      {"smiles": "CCc1ccc(CN2C(=O)c3ccccc3C2C(=O)NCCc2ccc(OC)c(OC)c2)cc1", "note": "(stereo unspecified)", "activation": "inactive: -10.8%"},
      {"smiles": "Cc1csc2nc(COC(=O)c3ccccc3NC(=O)c3ccc(F)cc3)cc(=O)n12", "activation": "inactive: -7.27%"},
      {"smiles": "COc1ccc(Cl)cc1NC(=O)CSc1nccn1Cc1ccco1", "activation": "inactive: -8.69%"},
      {"smiles": "Cc1ccccc1NC(=O)c1sc2nc3c(cc2c1N)CCCC3", "activation": "inactive: -17.8%"},
      {"smiles": "CCOc1cc2[nH]c(=O)n(Cc3ccc(C(=O)NCCN(CC)CC)cc3)c(=O)c2cc1OCC", "activation": "inactive: -8.14%"},
      {"smiles": "Cc1ccc(C)c(N2CCN(C(=O)c3ccc(CS(=O)(=O)c4ccc(Br)cc4)o3)CC2)c1", "activation": "inactive: -4.48%"},
      {"smiles": "COc1ccc(CC(=O)NCc2nc3cccnc3n2Cc2ccc(F)cc2)cc1OC", "activation": "inactive: -10.4%"},
      {"smiles": "COc1ccc(NC(=O)c2cc3c(=O)[nH]c4ccccc4c3n2C)cc1Cl", "activation": "inactive: 18.2%"},
      {"smiles": "CCCN(C(=O)CCc1nc(-c2ccccc2F)no1)c1ccc(CC)cc1", "activation": "inactive: -14.7%"},
      {"smiles": "COc1ccc(CNC(=O)Cn2c(SCC(=O)Nc3ccc(C)c(C)c3)nc3ccccc32)cc1", "activation": "inactive: -25.5%"},
      {"smiles": "CSc1nc2sc3c(c2c(=O)n1-c1ccc(F)c(Cl)c1)CCN(C(C)=O)C3", "activation": "inactive: -25.5%"},
      {"smiles": "Cc1cc(C)cc(NC(=O)CSc2nc(-c3cccc(Cl)c3)nc3c2Cc2c(CO)cnc(C)c2O3)c1", "activation": "inactive: 21.4%"},
      {"smiles": "CCOc1ccc(-c2nc(SCC(=O)NCCOC)c(-c3ccc(OC)c(OC)c3)[nH]2)cc1", "activation": "inactive: -18.5%"},
      {"smiles": "CCc1ccc(-n2nc(C)c3c(C(=O)Nc4cc(OC)cc(OC)c4)cc(C)nc32)cc1", "activation": "inactive: -20.9%"},
      {"smiles": "CCOC(=O)NC1(C(F)(F)F)NC(=O)N(c2ccc(C)c(C)c2)C1=O", "note": "(stereo unspecified)", "activation": "inactive: -6.64%"},
      {"smiles": "O=C(CSC1=Nc2ccccc2C2=NC(Cc3ccccc3)C(=O)N12)Nc1ccccc1F", "note": "(stereo unspecified)", "activation": "inactive: -18.6%"},
      {"smiles": "Cc1cc(C)cc(OCC(=O)Nc2ccc(S(=O)(=O)Nc3onc(C)c3C)cc2)c1", "activation": "inactive: 4.51%"},
      {"smiles": "COc1ccc(S(=O)(=O)NCCc2csc(-c3ccc(F)cc3)n2)cc1", "activation": "active: 60.3%"},
      {"smiles": "COc1ccc(-n2nc(C(=O)Nc3cccc(C(F)(F)F)c3)c3c4ccccc4n(C)c3c2=O)cc1", "activation": "inactive: -3.76%"},
      {"smiles": "Cc1nc(CC(=O)Nc2ccc(N(C)C)cc2)cs1", "activation": "inactive: -16.9%"},
      {"smiles": "Cc1nn(CC(=O)NCc2ccccc2Cl)c(=O)c2nn(-c3ccccc3)c(C)c12", "activation": "inactive: 5.25%"},
      {"smiles": "CCN1CCC[C@H]1CNC(=O)c1c(OC)ccc(Br)c1OC", "activation": "inactive: 4.71%"},
      {"smiles": "Cc1ccccc1NC(=O)CSC1=Nc2ccccc2C2=NC(CCC(=O)NCc3ccccc3)C(=O)N12", "note": "(stereo unspecified)", "activation": "inactive: -7.73%"},
      {"smiles": "CCN(CC)C(=O)c1sc2c(c1C)c(=O)n(-c1ccc(Cl)c(Cl)c1)c(=O)n2Cc1cc(=O)n2c(C)cccc2n1", "activation": "inactive: 1.39%"},
      {"smiles": "COC(=O)CN1C(=O)CSc2ccc(S(=O)(=O)N3CCOCC3)cc21", "activation": "inactive: -1.43%"},
      {"smiles": "COC(=O)c1sccc1S(=O)(=O)N(CC(=O)NCc1ccc(C)cc1)c1ccc(Cl)cc1", "activation": "inactive: -9.25%"},
      {"smiles": "COc1ccc(C(=O)Nc2ccc3nc(SCC(=O)N4CCCc5ccccc54)sc3c2)cc1", "activation": "inactive: -14%"},
      {"smiles": "Cc1cc(C)cc(N2C(=O)N(CC(=O)c3ccc(Br)cc3)c3ccccc3S2(=O)=O)c1", "activation": "inactive: -31.8%"},
      {"smiles": "COc1ccccc1CNC(=O)CN1C(=O)COc2ccc(S(=O)(=O)N3CCCCC3)cc21", "activation": "inactive: -24.7%"},
      {"smiles": "O=S(=O)(NCc1cccc(Br)c1)c1ccc(-c2cc(C(F)(F)F)on2)s1", "activation": "inactive: -8.96%"},
      {"smiles": "Cc1ccc(-c2nc(C)c(CCNS(=O)(=O)c3ccccc3F)s2)cc1", "activation": "inactive: 48.2%"},
      {"smiles": "CCCCn1cc(S(=O)(=O)c2ccc(OC)cc2)c(=O)c2cc(F)c(N3CCCC3)cc21", "activation": "inactive: -5.65%"},
      {"smiles": "COc1cc(NS(C)(=O)=O)ccc1Nc1c2ccccc2nc2ccccc12", "activation": "inactive: 5.29%"},
      {"smiles": "CCOc1ccc(NC(=O)Cn2cc(C(=O)c3ccc(C)c(C)c3)c(=O)c3cc4c(cc32)OCCO4)cc1", "activation": "inactive: 22.9%"},
      {"smiles": "CN1C(=O)C(C)(C)c2cc(S(=O)(=O)NCc3ccc(C(=O)Nc4ccc(Cl)cc4)cc3)ccc21", "activation": "inactive: 12.6%"},
      {"smiles": "Cc1cccc(NC(=O)N2CCC(CN3CCc4ccccc4C3)CC2)c1C", "activation": "inactive: -17%"},
      {"smiles": "COc1ccc(CNC(=O)c2cc3ccccn3n2)c(OC)c1", "activation": "inactive: -1.55%"},
      {"smiles": "CCCCN(CC)C(=O)Cn1c(=O)n(-c2ccc(OCC)cc2)c(=O)c2c3c(sc21)CCC3", "activation": "inactive: -12.3%"},
      {"smiles": "Cn1nc(C(=O)N2CCN(c3ccccc3)CC2)c2c1-c1ccccc1SC2", "activation": "inactive: 3.14%"},
      {"smiles": "CCCCOc1ccc(CNC(=O)Cn2ncn3c(cc4cc(F)ccc43)c2=O)cc1", "activation": "inactive: -0.392%"},
      {"smiles": "O=C(c1ccc2c(c1)OCO2)c1cn(Cc2ccc(F)cc2)c2ccccc2c1=O", "activation": "inactive: -3.76%"},
      {"smiles": "Cc1ccc(C2CCN(C(=O)c3cnn(-c4ccccc4Cl)c3C3CCN(C(=O)OC(C)(C)C)CC3)C2)cc1", "note": "(stereo unspecified)", "activation": "inactive: -31.3%"},
      {"smiles": "COc1cc(OC)c(C2C=C(C(=O)O)Nc3ncnn32)cc1OC", "note": "(stereo unspecified)", "activation": "inactive: 20.8%"},
      {"smiles": "CCCOC(=O)c1c(NC(=O)c2nc3ncccn3n2)sc(C(=O)OCC)c1C", "activation": "inactive: 17.3%"}
    ]}
  ]
}
